Experimental data from the supplement of paper PMC8728848.
This is one part of the list.

Legend:
Test in all cases: glycan array binding signal (z-score within array); higher = stronger binding
Details in all cases: glycan notation: IUPAC condensed, linker removed
[1] = target: GlcNAc(b1-3)Gal(b1-4)GlcNAc(b1-3)Gal(b1-4)GlcNAc(b1-2)Man(a1-3)[GlcNAc(b1-3)Gal(b1-4)GlcNAc(b1-3)Gal(b1-4)GlcNAc(b1-2)Man(a1-6)]Man(b1-4)GlcNAc(b1-4)GlcNAc
Method in brief: (§1)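 From the Consortium for Functional Glycomics database, 3228 arrays were curated, keeping only those whose protein sequence was available. Binding is given as a within-array Z-score averaged across arrays sharing a protein sequence and across linkers. Negative Z-scores can be read as non-binding.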

[2] = target: GlcNAc(b1-3)Gal(b1-4)GlcNAc(b1-3)Gal(b1-4)GlcNAc(b1-2)Man(a1-3)[GlcNAc(b1-3)Gal(b1-4)GlcNAc(b1-3)Gal(b1-4)GlcNAc(b1-2)Man(a1-6)]Man(b1-4)GlcNAc(b1-4)[Fuc(a1-6)]GlcNAc
Method in brief: as §1

[3] = target: GlcNAc(b1-3)Gal(b1-4)GlcNAc(b1-3)Gal(b1-4)GlcNAc(b1-2)[GlcNAc(b1-3)Gal(b1-4)GlcNAc(b1-3)Gal(b1-4)GlcNAc(b1-6)]Man(a1-6)[GlcNAc(b1-3)Gal(b1-4)GlcNAc(b1-3)Gal(b1-4)GlcNAc(b1-2)Man(a1-3)]Man(b1-4)GlcNAc(b1-4)[Fuc(a1-6)]GlcNAc
Method in brief: as §1

[4] = target: GlcNAc(b1-3)Gal(b1-4)GlcNAc(b1-3)Gal(b1-4)GlcNAc(b1-3)Gal(b1-4)GlcNAc(b1-2)Man(a1-3)[GlcNAc(b1-3)Gal(b1-4)GlcNAc(b1-3)Gal(b1-4)GlcNAc(b1-3)Gal(b1-4)GlcNAc(b1-2)Man(a1-6)]Man(b1-4)GlcNAc(b1-4)GlcNAc
Method in brief: as §1

[5] = target: GlcNAc(b1-3)Gal(b1-4)GlcNAc(b1-3)Gal(b1-4)GlcNAc(b1-3)Gal(b1-4)GlcNAc(b1-2)Man(a1-3)[GlcNAc(b1-3)Gal(b1-4)GlcNAc(b1-3)Gal(b1-4)GlcNAc(b1-3)Gal(b1-4)GlcNAc(b1-2)Man(a1-6)]Man(b1-4)GlcNAc(b1-4)[Fuc(a1-6)]GlcNAc
Method in brief: as §1

[6] = target: GlcNAc(b1-3)Gal(b1-4)GlcNAc(b1-3)Gal(b1-4)GlcNAc(b1-3)Gal(b1-4)GlcNAc(b1-2)[GlcNAc(b1-3)Gal(b1-4)GlcNAc(b1-3)Gal(b1-4)GlcNAc(b1-3)Gal(b1-4)GlcNAc(b1-6)]Man(a1-6)[GlcNAc(b1-3)Gal(b1-4)GlcNAc(b1-3)Gal(b1-4)GlcNAc(b1-3)Gal(b1-4)GlcNAc(b1-2)Man(a1-3)]Man(b1-4)GlcNAc(b1-4)[Fuc(a1-6)]GlcNAc
Method in brief: as §1

[7] = target: GlcNAc(b1-3)Gal(b1-4)GlcNAc(b1-3)Gal(b1-4)GlcNAc(b1-3)Gal(b1-4)GlcNAc(b1-3)Gal(b1-4)GlcNAc(b1-2)Man(a1-3)[GlcNAc(b1-3)Gal(b1-4)GlcNAc(b1-3)Gal(b1-4)GlcNAc(b1-3)Gal(b1-4)GlcNAc(b1-3)Gal(b1-4)GlcNAc(b1-2)Man(a1-6)]Man(b1-4)GlcNAc(b1-4)GlcNAc
Method in brief: as §1

[8] = target: GlcNAc(b1-3)Gal(b1-4)GlcNAc(b1-3)Gal(b1-4)GlcNAc(b1-3)Gal(b1-4)GlcNAc(b1-3)Gal(b1-4)GlcNAc(b1-2)Man(a1-3)[GlcNAc(b1-3)Gal(b1-4)GlcNAc(b1-3)Gal(b1-4)GlcNAc(b1-3)Gal(b1-4)GlcNAc(b1-3)Gal(b1-4)GlcNAc(b1-2)Man(a1-6)]Man(b1-4)GlcNAc(b1-4)[Fuc(a1-6)]GlcNAc
Method in brief: as §1

[9] = target: GlcNAc(b1-3)Gal(b1-4)GlcNAc(b1-3)Gal(b1-4)GlcNAc(b1-3)Gal(b1-4)GlcNAc(b1-3)Gal(b1-4)GlcNAc(b1-2)[GlcNAc(b1-3)Gal(b1-4)GlcNAc(b1-3)Gal(b1-4)GlcNAc(b1-3)Gal(b1-4)GlcNAc(b1-3)Gal(b1-4)GlcNAc(b1-6)]Man(a1-6)[GlcNAc(b1-3)Gal(b1-4)GlcNAc(b1-3)Gal(b1-4)GlcNAc(b1-3)Gal(b1-4)GlcNAc(b1-3)Gal(b1-4)GlcNAc(b1-2)Man(a1-3)]Man(b1-4)GlcNAc(b1-4)[Fuc(a1-6)]GlcNAc
Method in brief: as §1

[10] = target: GlcNAc(b1-3)Gal(b1-4)GlcNAc(b1-3)Gal(b1-4)GlcNAc(b1-3)GalNAc
Method in brief: as §1

[11] = target: GlcNAc(b1-3)Gal(b1-4)GlcNAc(b1-3)GalNAc
Method in brief: as §1

[12] = target: GlcNAc(b1-3)Gal(b1-4)GlcNAc(b1-3)[GlcNAc(b1-3)Gal(b1-4)GlcNAc(b1-3)]GalNAc
Method in brief: as §1

[13] = target: GlcNAc(b1-3)Gal(b1-4)GlcNAc(b1-6)[Gal(b1-3)]GalNAc
Method in brief: as §1

[14] = target: GlcNAc(b1-3)Gal(b1-4)GlcNAc(b1-6)[GlcNAc(b1-3)Gal(b1-3)]GalNAc
Method in brief: as §1

[15] = target: GlcNAc(b1-3)Gal(b1-4)GlcNAc(b1-6)[GlcNAc(b1-3)]Gal(b1-4)GlcNAc
Method in brief: as §1

GlcNAc(b1-3)GalNAc = target: GlcNAc(b1-3)GalNAc
Method in brief: as §1

GlcNAc(b1-3)Man = target: GlcNAc(b1-3)Man
Method in brief: as §1

[16] = target: GlcNAc(b1-3)[GlcNAc(b1-4)][GlcNAc(b1-6)]GlcNAc
Method in brief: as §1

[17] = target: GlcNAc(b1-3)[GlcNAc(b1-6)]Gal(b1-4)GlcNAc
Method in brief: as §1

[18] = target: GlcNAc(b1-3)[GlcNAc(b1-6)]GalNAc
Method in brief: as §1

[19] = target: GlcNAc(b1-4)Gal(b1-4)GlcNAc
Method in brief: as §1

GlcNAc(b1-4)GlcNAc = target: GlcNAc(b1-4)GlcNAc
Method in brief: as §1

[20] = target: GlcNAc(b1-4)GlcNAc(b1-4)GlcNAc
Method in brief: as §1

[21] = target: GlcNAc(b1-4)GlcNAc(b1-4)GlcNAc(b1-4)GlcNAc(b1-4)GlcNAc
Method in brief: as §1

[22] = target: GlcNAc(b1-4)GlcNAc(b1-4)GlcNAc(b1-4)GlcNAc(b1-4)GlcNAc(b1-4)GlcNAc
Method in brief: as §1

[23] = target: GlcNAc(b1-4)[GlcNAc(b1-6)]GalNAc
Method in brief: as §1

[24] = target: GlcNAc(b1-6)Gal(b1-4)GlcNAc
Method in brief: as §1

GlcNAc(b1-6)GalNAc = target: GlcNAc(b1-6)GalNAc
Method in brief: as §1

[25] = target: GlcNAc6S(b1-3)Gal(b1-4)GlcNAc
Method in brief: as §1

Kdn(a2-3)Gal(b1-3)GalNAc = target: Kdn(a2-3)Gal(b1-3)GalNAc
Method in brief: as §1

Kdn(a2-3)Gal(b1-3)GlcNAc = target: Kdn(a2-3)Gal(b1-3)GlcNAc
Method in brief: as §1

Kdn(a2-3)Gal(b1-4)Glc = target: Kdn(a2-3)Gal(b1-4)Glc
Method in brief: as §1

Kdn(a2-3)Gal(b1-4)GlcNAc = target: Kdn(a2-3)Gal(b1-4)GlcNAc
Method in brief: as §1

[26] = target: Kdn(a2-3)Gal(b1-4)[Fuc(a1-3)]GlcNAc
Method in brief: as §1

Kdn(a2-6)Gal(b1-4)GlcNAc = target: Kdn(a2-6)Gal(b1-4)GlcNAc
Method in brief: as §1

[27] = target: Man(a1-2)Man(a1-2)Man(a1-3)Man
Method in brief: as §1

[28] = target: Man(a1-2)Man(a1-2)Man(a1-6)[Man(a1-3)]Man
Method in brief: as §1

Man(a1-2)Man(a1-3)Man = target: Man(a1-2)Man(a1-3)Man
Method in brief: as §1

B1: Als1 (Candida albicans), P46590 (protein)
chain: KTITGVFDSFNSLTWSNAANYAFKGPGYPTWNAVLGWSLDGTSANPGDTFTLNMPCVFKYTTSQTSVDLTADGVKYATCQFYSGEEFTTFSTLTCTVNDALKSSIKAFGTVTLPIAFNVGGTGSSTDLEDSKCFTAGTNTVTFNDGDKDISIDVEFEKSTVDPSGYLYASRVMPSLNKVTTLFVAPQCENGYTSGTMGFSSSNGDVAIDCSNIHIGITKGLNDWNYPVSSESFSYTKTCTSNGIQIKYQNVPAGYRPFIDAYISATDVNQYTLAYTNDYTCAGSRLQSKPFTLRWTGYKNSDAGSNGIVIVATTRTVTDSTTAVTTLPFNPSVDKTKTIEILQPIPTTTITTSYVGVTTSYLTKTAPIGETATVIVDVPYHTTTTVTSEWTGTITTTTTRTNPTDSIDTVVVQVP
- glycan array binding signal (z-score) [1]: 2.67
- glycan array binding signal (z-score) [2]: -0.328
- glycan array binding signal (z-score) [3]: 0.505
- glycan array binding signal (z-score) [4]: 0.134
- glycan array binding signal (z-score) [5]: -0.545
- glycan array binding signal (z-score) [6]: 0.48
- glycan array binding signal (z-score) [7]: -0.474
- glycan array binding signal (z-score) [8]: -0.624
- glycan array binding signal (z-score) [9]: 0.182
- glycan array binding signal (z-score) [10]: -0.508
- glycan array binding signal (z-score) [11]: 0.306
- glycan array binding signal (z-score) [12]: -0.654
- glycan array binding signal (z-score) [13]: 0.265
- glycan array binding signal (z-score) [14]: -0.585
- glycan array binding signal (z-score) [15]: 1.39
- glycan array binding signal (z-score) (GlcNAc(b1-3)GalNAc): -0.57
- glycan array binding signal (z-score) (GlcNAc(b1-3)Man): -0.282
- glycan array binding signal (z-score) [16]: -0.335
- glycan array binding signal (z-score) [17]: -0.361
- glycan array binding signal (z-score) [18]: -0.201
- glycan array binding signal (z-score) [19]: -0.011
- glycan array binding signal (z-score) (GlcNAc(b1-4)GlcNAc): 1.81
- glycan array binding signal (z-score) [20]: -0.547
- glycan array binding signal (z-score) [21]: -0.158
- glycan array binding signal (z-score) [22]: -0.318
- glycan array binding signal (z-score) [23]: -1.29
- glycan array binding signal (z-score) [24]: 0.027
- glycan array binding signal (z-score) (GlcNAc(b1-6)GalNAc): -0.026
- glycan array binding signal (z-score) [25]: 1.57
- glycan array binding signal (z-score) (Kdn(a2-3)Gal(b1-3)GalNAc): -0.044
- glycan array binding signal (z-score) (Kdn(a2-3)Gal(b1-3)GlcNAc): -0.14
- glycan array binding signal (z-score) (Kdn(a2-3)Gal(b1-4)Glc): 1.36
- glycan array binding signal (z-score) (Kdn(a2-3)Gal(b1-4)GlcNAc): -0.488
- glycan array binding signal (z-score) [26]: 0.367
- glycan array binding signal (z-score) (Kdn(a2-6)Gal(b1-4)GlcNAc): -0.167
- glycan array binding signal (z-score) [27]: 1.79
- glycan array binding signal (z-score) [28]: -0.553
- glycan array binding signal (z-score) (Man(a1-2)Man(a1-3)Man): 0.146
